In patent publication US20050256058:

Test system: T1, Cbz-Ala-Ala-AAsn-CH═CH-CON(CH3)-2-Napth
T1 sequence: AAN

Substance | kobs/[I]
Cathepsin B | NI
Gingipain K | 6 M⁻¹ s⁻¹
